IC50 is the fitted dose that halves viability relative to control wells, and lower means more sensitive; fits outside the tested doses are given as limits. AUC sums up the same curve from the lowest dose to the 256-fold higher top dose: 1 means no effect, lower means more sensitive. Any top dose called inferred was derived from the fitted curves, not read from the paper. For some of these results: Drugs with an entry number were screened twice under separate entries, and the two screens often disagree.
Experiments:
Test in all cases: Viability of human cancer cell lines after 72 h of drug (GDSC screen)
Shikonin = compound: CC(C)=CC[C@@H](O)C1=CC(=O)c2c(O)ccc(O)c2C1=O [Shikonin]; conditions: top dose 16 µM; top dose inferred
Protocol: (§1)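 Human cancer cell lines in 384-well plates, medium with 10% serum, drug for 72 h over a 256-fold dose range (nine 2-fold or five 4-fold steps up to the top dose). Adherent lines were fixed and stained with the nucleic acid dye Syto60, suspension lines read with resazurin; signal relative to control wells, capped at 0 and 100%. One two-parameter sigmoid per drug and line, fitted in a mixed model over all curves with the slope shared within a line.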

CGP-082996 (CINK4) = compound: CCNc1cc(NC2CCC(O)CC2)nc(Nc2ccc3c(ccn3Cc3ccccc3)c2)n1 [CGP-082996 (CINK4)]; conditions: top dose 5.12 µM; top dose inferred
Protocol: as §1

A-770041 = compound: COc1cc(-c2nn([C@H]3CC[C@H](N4CCN(C(C)=O)CC4)CC3)c3ncnc(N)c23)ccc1NC(=O)c1cc2ccccc2n1C [A-770041]; conditions: top dose 5.12 µM; top dose inferred
Protocol: as §1

XMD8-85 = compound: COc1cc(N2CCN(C)CC2)ccc1Nc1ncc2c(n1)N(C)c1ccccc1C(=O)N2C [XMD8-85]; conditions: top dose 8 µM; top dose inferred
Protocol: as §1

BMS-536924 = compound: Cc1cc(N2CCOCC2)cc2[nH]c(-c3c(NC[C@@H](O)c4cccc(Cl)c4)cc[nH]c3=O)nc12 [BMS-536924]
Protocol: as §1

BIRB 0796 = compound: Cc1ccc(-n2nc(C(C)(C)C)cc2NC(=O)Nc2ccc(OCCN3CCOCC3)c3ccccc23)cc1 [BIRB 0796]; conditions: top dose 10 µM; top dose inferred
Protocol: as §1

VX-702 = compound: NC(=O)c1ccc(N(C(N)=O)c2c(F)cccc2F)nc1-c1ccc(F)cc1F [VX-702]; conditions: top dose 2 µM; top dose inferred
Protocol: as §1

Olaparib = compound: O=C(c1cc(Cc2n[nH]c(=O)c3ccccc23)ccc1F)N1CCN(C(=O)C2CC2)CC1 [Olaparib]
Protocol: as §1

Wee1 inhibitor 681640 = compound: O=C1NC(=O)c2c1c(-c1ccccc1Cl)cc1[nH]c3ccc(O)cc3c21 [Wee1 inhibitor 681640]; conditions: top dose 2 µM; top dose inferred
Protocol: as §1

SB-525334 = compound: Cc1cccc(-c2[nH]c(C(C)(C)C)nc2-c2ccc3nccnc3c2)n1 [SB-525334]; conditions: top dose 20 µM; top dose inferred
Protocol: as §1

[1] = top dose 4 µM, screen: GDSC drug entry 1091, top dose inferred
[2] = top dose 5.12 µM, screen: GDSC drug entry 62
[3] = top dose 5 µM, screen: GDSC drug entry 1017, top dose inferred
[4] = top dose 10 µM, screen: GDSC drug entry 1495

Cell Line | AUC (Shikonin) | IC50 (Shikonin) | AUC (CGP-082996 (CINK4)) | IC50 (CGP-082996 (CINK4)) | AUC (A-770041) | IC50 (A-770041) | AUC (XMD8-85) | IC50 (XMD8-85) | AUC (BMS-536924; [1]) | IC50 (BMS-536924; [1]) | AUC (BMS-536924; [2]) | IC50 (BMS-536924; [2]) | AUC (BIRB 0796) | IC50 (BIRB 0796) | AUC (VX-702) | IC50 (VX-702) | AUC (Olaparib; [3]) | IC50 (Olaparib; [3]) | AUC (Olaparib; [4]) | IC50 (Olaparib; [4]) | AUC (Wee1 inhibitor 681640) | IC50 (Wee1 inhibitor 681640) | AUC (SB-525334) | IC50 (SB-525334)
COR-L279 (small cell lung carcinoma, suspension) | 0.968 | > 16 µM | 0.956 | > 5.12 µM | 0.981 | > 5.12 µM | 0.905 | > 8 µM | 0.989 | > 4 µM | 0.947 | > 5.12 µM | 0.99 | > 10 µM | 0.991 | > 2 µM | 0.964 | > 5 µM | 0.798 | 4.17 µM | 0.991 | > 2 µM |  | 
DOHH-2 (B-cell lymphoma, suspension) | 0.413 | 0.58 µM | 0.745 | 1.58 µM | 0.202 | 0.0432 µM | 0.752 | 2.61 µM |  |  | 0.875 | 4.84 µM | 0.985 | > 10 µM | 0.983 | > 2 µM | 0.874 | 4.65 µM |  |  | 0.868 | 1.75 µM |  | 
GA-10 (Burkitt lymphoma, suspension) | 0.099 | 0.0667 µM | 0.862 | 3.3 µM | 0.104 | 0.0224 µM | 0.702 | 1.66 µM | 0.963 | > 4 µM | 0.741 | 1.36 µM | 0.975 | > 10 µM | 0.97 | > 2 µM | 0.989 | > 5 µM | 0.991 | > 10 µM | 0.948 | > 2 µM |  | 
HCC1187 (breast, suspension) | 0.526 | 1.18 µM | 0.981 | > 5.12 µM | 0.961 | > 5.12 µM | 0.83 | 4.68 µM | 0.928 | > 4 µM | 0.951 | > 5.12 µM | 0.985 | > 10 µM | 0.976 | > 2 µM |  |  |  |  | 0.978 | > 2 µM | 0.943 | > 20 µM
IM-9 (myeloma, suspension) | 0.615 | 1.98 µM | 0.942 | > 5.12 µM | 0.992 | > 5.12 µM | 0.992 | > 8 µM | 0.991 | > 4 µM | 0.991 | > 5.12 µM | 0.992 | > 10 µM | 0.991 | > 2 µM | 0.99 | > 5 µM | 0.962 | > 10 µM | 0.992 | > 2 µM |  | 
JAR (urogenital system, adherent) | 0.682 | 3.2 µM | 0.934 | > 5.12 µM | 0.971 | > 5.12 µM | 0.964 | > 8 µM | 0.963 | > 4 µM | 0.969 | > 5.12 µM | 0.977 | > 10 µM |  |  |  |  | 0.975 | > 10 µM | 0.934 | > 2 µM | 0.956 | > 20 µM
KARPAS-231 (B-cell leukaemia, suspension) | 0.28 | 0.283 µM | 0.943 | > 5.12 µM | 0.385 | 0.167 µM | 0.803 | 2.94 µM | 0.977 | > 4 µM | 0.849 | 2.57 µM | 0.987 | > 10 µM | 0.973 | > 2 µM | 0.932 | > 5 µM | 0.974 | > 10 µM | 0.933 | > 2 µM |  | 
MPP-89 (mesothelioma, adherent) | 0.498 | 0.985 µM | 0.903 | > 5.12 µM | 0.858 | > 5.12 µM | 0.744 | 3.15 µM | 0.947 | > 4 µM | 0.828 | 4.57 µM | 0.973 | > 10 µM |  |  | 0.979 | > 5 µM | 0.926 | > 10 µM | 0.864 | > 2 µM | 0.916 | > 20 µM
MZ7-mel (melanoma, adherent) | 0.169 | 0.0936 µM | 0.913 | > 5.12 µM | 0.939 | > 5.12 µM | 0.869 | 7.85 µM | 0.938 | > 4 µM | 0.92 | > 5.12 µM | 0.979 | > 10 µM |  |  |  |  | 0.982 | > 10 µM | 0.987 | > 2 µM | 0.858 | 17.4 µM
QIMR-WIL (acute myeloid leukaemia, suspension) |  |  | 0.971 | > 5.12 µM | 0.799 | 2.37 µM | 0.839 | 5.24 µM | 0.969 | > 4 µM | 0.873 | 4.67 µM | 0.987 | > 10 µM | 0.97 | > 2 µM | 0.966 | > 5 µM | 0.959 | > 10 µM | 0.964 | > 2 µM | 0.867 | 17.1 µM
SK-ES-1 (Ewing sarcoma, semi-adherent) | 0.506 | 1.04 µM | 0.907 | > 5.12 µM | 0.982 | > 5.12 µM | 0.903 | > 8 µM | 0.791 | 1.93 µM | 0.522 | 0.37 µM | 0.978 | > 10 µM | 0.942 | > 2 µM |  |  |  |  | 0.962 | > 2 µM | 0.761 | 7.55 µM
U-87-MG (glioma, adherent) | 0.542 | 1.33 µM | 0.97 | > 5.12 µM | 0.945 | > 5.12 µM | 0.85 | 7.76 µM | 0.893 | > 4 µM | 0.979 | > 5.12 µM | 0.985 | > 10 µM | 0.978 | > 2 µM |  |  |  |  | 0.917 | > 2 µM | 0.969 | > 20 µM
